This is an account of results in patent publication US20250387474A1 (MEDICENNA THERAPEUTICS, published 2025).

Read-outs that look alike come from different tables or passages of the source.

The target of experiment [1] is T1, human IL-2R beta (CD122) (human, UniProt P14784 27-239).
T1 construct: also called IL-2Rβ; IL2Rβ
T1 sequence (looked up): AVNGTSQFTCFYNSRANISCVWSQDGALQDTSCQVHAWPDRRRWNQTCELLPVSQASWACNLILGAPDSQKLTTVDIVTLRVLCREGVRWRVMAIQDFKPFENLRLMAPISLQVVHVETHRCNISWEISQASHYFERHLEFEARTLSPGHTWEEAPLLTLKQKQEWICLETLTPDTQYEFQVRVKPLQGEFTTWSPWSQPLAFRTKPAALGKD
Description: SPR (Example 5), human receptor.

Experiment [2] deals with T2, human IL-13Rα2 (human, UniProt Q14627 27-343).
T2 construct: also called Human IL-13 R alpha 2 Protein; IL-13 decoy receptor
T2 sequence (looked up): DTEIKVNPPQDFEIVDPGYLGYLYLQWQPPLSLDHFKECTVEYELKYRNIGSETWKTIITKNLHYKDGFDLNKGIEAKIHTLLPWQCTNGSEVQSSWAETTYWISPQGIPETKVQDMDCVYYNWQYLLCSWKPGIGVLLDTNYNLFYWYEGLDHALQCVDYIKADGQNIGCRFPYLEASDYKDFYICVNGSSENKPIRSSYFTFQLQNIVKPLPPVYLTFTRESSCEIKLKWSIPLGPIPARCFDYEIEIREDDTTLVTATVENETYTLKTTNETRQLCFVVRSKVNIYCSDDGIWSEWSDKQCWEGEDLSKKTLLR
Description: SPR (Example 5), human receptor.

Experiment [3] has as its target T1, human IL-2R beta (CD122). In words: SPR (Example 5), human receptor. The source holds these as a separate data set.
Experiment [4] addresses T2, human IL-13Rα2. In words: SPR (Example 5), human receptor. The source holds these as a separate data set.
Experiment [5] has as its target T3, human IL-13Rα1 (human, UniProt P78552 22-343).
T3 construct: also called Human IL-13 R alpha 1 Protein; IL-13 functional receptor
T3 sequence (looked up): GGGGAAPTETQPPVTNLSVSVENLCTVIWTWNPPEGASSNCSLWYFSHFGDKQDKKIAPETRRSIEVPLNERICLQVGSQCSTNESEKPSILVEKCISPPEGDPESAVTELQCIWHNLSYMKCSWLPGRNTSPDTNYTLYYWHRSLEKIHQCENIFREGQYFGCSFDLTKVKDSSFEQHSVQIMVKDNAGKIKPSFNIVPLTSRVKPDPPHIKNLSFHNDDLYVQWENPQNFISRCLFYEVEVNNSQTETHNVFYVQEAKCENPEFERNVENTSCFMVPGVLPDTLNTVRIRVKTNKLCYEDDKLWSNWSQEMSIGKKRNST
Description: SPR (Example 5), human receptor.

For experiment [6], the target named is T4, human IL-2R alpha (CD25) (human, UniProt P01589 22-213).
T4 construct: also called IL-2Rα; IL2Rα
T4 sequence (looked up): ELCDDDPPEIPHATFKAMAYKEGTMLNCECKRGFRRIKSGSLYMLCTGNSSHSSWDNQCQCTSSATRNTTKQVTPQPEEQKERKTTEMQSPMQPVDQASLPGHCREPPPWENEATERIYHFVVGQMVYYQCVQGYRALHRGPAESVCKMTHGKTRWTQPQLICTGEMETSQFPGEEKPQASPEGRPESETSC
Description: SPR (Example 5), human receptor.

The target in experiment [7] is T4, human IL-2R alpha (CD25). Description: BLI (Octet).
The target in experiment [8] is T5, IL-2Rβγ on Jurkat IL2Rβγ bioassay cells (UniProt P14784 27-551; P31785 23-369, limits assumed).
T5 sequence (looked up) 1: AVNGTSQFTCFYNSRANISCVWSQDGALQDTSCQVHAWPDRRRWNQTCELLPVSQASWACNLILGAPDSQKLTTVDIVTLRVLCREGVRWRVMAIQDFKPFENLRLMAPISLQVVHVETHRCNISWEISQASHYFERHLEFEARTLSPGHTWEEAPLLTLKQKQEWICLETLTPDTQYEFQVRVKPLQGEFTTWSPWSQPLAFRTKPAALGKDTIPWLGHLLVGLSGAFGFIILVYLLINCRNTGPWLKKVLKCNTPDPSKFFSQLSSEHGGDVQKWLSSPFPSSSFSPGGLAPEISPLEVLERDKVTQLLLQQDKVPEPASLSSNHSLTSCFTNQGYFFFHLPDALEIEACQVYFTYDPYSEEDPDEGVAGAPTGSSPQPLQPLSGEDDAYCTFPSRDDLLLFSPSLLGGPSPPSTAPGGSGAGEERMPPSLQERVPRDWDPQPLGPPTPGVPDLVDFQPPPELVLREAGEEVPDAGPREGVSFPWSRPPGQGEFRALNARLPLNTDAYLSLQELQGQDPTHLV
T5 sequence (looked up) 2: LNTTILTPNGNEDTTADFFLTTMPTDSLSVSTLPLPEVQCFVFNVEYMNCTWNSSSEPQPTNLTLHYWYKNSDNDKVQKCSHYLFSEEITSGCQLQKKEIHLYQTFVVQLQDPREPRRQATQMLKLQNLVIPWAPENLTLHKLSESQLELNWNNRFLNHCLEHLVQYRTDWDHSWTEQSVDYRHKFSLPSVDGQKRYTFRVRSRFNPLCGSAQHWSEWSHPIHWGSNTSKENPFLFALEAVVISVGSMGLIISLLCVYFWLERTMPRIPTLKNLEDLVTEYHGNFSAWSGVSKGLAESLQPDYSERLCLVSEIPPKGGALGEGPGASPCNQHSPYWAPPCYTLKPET
In words: cell-based or functional assay.

Experiment [9] deals with T2, human IL-13Rα2. In words: SPR (Example 5), receptor concentrations 1.9 to 250 nM.
In experiment [10] the target is T6, mouse CD3 epitopes (CD3epsilon/delta) (mouse, UniProt P22646 22-108; P04235 22-105).
T6 sequence (looked up) 1: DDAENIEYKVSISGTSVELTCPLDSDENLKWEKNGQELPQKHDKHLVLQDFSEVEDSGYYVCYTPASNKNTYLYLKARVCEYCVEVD
T6 sequence (looked up) 2: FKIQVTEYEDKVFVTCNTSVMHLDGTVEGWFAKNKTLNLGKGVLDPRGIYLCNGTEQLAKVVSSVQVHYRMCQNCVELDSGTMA
Description: SPR (Example 5), concentrations 7.8 to 1000 nM.

Experiment [11] concerns the target T6, mouse CD3 epitopes (CD3epsilon/delta). In words: SPR (Example 5) on mouse CD3 epsilon delta heterodimer, sensorgrams in Figure 44B.
Experiment [12] addresses T2, human IL-13Rα2. In words: SPR, construct captured on anti-human IgG (Fc) antibody on a CM5 chip, human receptor as analyte.
The target of experiment [13] is T3, human IL-13Rα1. The description is as above.
For experiment [14], the target named is human CD3 epitopes (CD3epsilon/delta) (human, UniProt P07766 23-126; P04234 22-105). In words: SPR (Example 5) on human CD3 epsilon delta heterodimer.
Chain of UniProt P07766 (P07766 23-126, stated change not applied, chain 1 of 2): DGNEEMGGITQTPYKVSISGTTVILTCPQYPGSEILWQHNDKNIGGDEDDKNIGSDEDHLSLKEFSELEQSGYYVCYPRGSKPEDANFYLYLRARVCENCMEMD
Chain of UniProt P07766 (P04234 22-105, stated change not applied, chain 2 of 2, further chain): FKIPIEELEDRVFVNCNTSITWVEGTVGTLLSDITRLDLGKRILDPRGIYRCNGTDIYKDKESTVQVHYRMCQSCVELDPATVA

B1: MDNA109FEAA^C125-Fc-MDNA132^L39/Q111 (Fc fusion)
chain: APTSSSTKKTQLQLEHLLLDLQMILNGINNYKNPKLTRMLTAKFYMPKKATELKHLQCLEEALKPLEEVLNLAQSKNFHFDPRDVVSNINVFVLELKGSETTFMCEYADETATIVEFLNRWITFCQSIISTLTGGGGSGGGGSGGGGS[sequence of human IgG1 Fc with changes not given]GGGSGGGGSGGGGSPGPVPPSTAHRELIEELVNITQNQKAPLCNGSMVWSINLTAGMYCAALESLINVSGCSAIEKTQRMLSGFCPHKVSAGQFSSLHVTGRKIEVAQFVKDLLLHLKKLFKEGQFN
For the molecule B1, the results for the Kd in the experiment with human IL-2R beta (CD122) [1] and in the experiment with human IL-13Rα2 [2] were 8.01 nM and 1.9 nM, respectively.

B2: H9T-Fc-MDNA132^L39/Q111 (Fc fusion)
IL-2 mutein (H9T) - Fc - IL-13 mutein (MDNA132) fusion chain: APTSSSTKKTQLQLEHLLLDLQMILNGINNYKNPKLTRMLTFKFYMPKKATELKHLQCLEEELKPLEEVLNLAQSKNFHFDPRDVVSNINVFVLELKGSETTFMCEYADETATIVEFLNRWITFCTSIISTLTGGGGSGGGGSGGGGS[sequence of human IgG1 Fc with changes not given]GGGSGGGGSGGGGSPGPVPPSTAHRELIEELVNITQNQKAPLCNGSMVWSINLTAGMYCAALESLINVSGCSAIEKTQRMLSGFCPHKVSAGQFSSLHVTGRKIEVAQFVKDLLLHLKKLFKEGQFN
notes: also called H9T-Fc-MDNA132 (2:1:2)
For the molecule B2, the figures for the Kd with human IL-2R beta (CD122) [3], in the experiment with human IL-13Rα2 [4] and in the experiment with human IL-2R alpha (CD25) [6] were 6.85 nM, 1.88 nM and 18.3 nM, respectively. Further, in the experiment with human IL-13Rα1 [5], the binding result was “no binding (tested: 400 nM)”.

B3: MDNA19 (MDNA109FEAA-Fc, 2:1) (Fc fusion)
chain: APTSSSTKKTQLQLEHLLLDLQMILNGINNYKNPKLTRMLTAKFYMPKKATELKHLQCLEEALKPLEEVLNLAQSKNFHFDPRDVVSNINVFVLELKGSETTFMCEYADETATIVEFLNRWITFCQSIISTLTGGGGSGGGGSGGGGS[sequence of human IgG1 Fc with changes not given]
notes: also called MDNA19/MDNA109FEAA^C125-Fc
Take B3: the binding result in the experiment with human IL-2R alpha (CD25) [7] is listed as “no binding (tested: 2000 nM)”. Further, in experiment [8], the “Jurkat IL2Rβγ bioassay (luciferase), EC50” value is 0.11 nM.

B4: VivoTag800-MDNA19 (Fc fusion)
chain: APTSSSTKKTQLQLEHLLLDLQMILNGINNYKNPKLTRMLTAKFYMPKKATELKHLQCLEEALKPLEEVLNLAQSKNFHFDPRDVVSNINVFVLELKGSETTFMCEYADETATIVEFLNRWITFCQSIISTLTGGGGSGGGGSGGGGS[sequence of human IgG1 Fc with changes not given]
notes: also called VivoTag800 labelled MDNA19
As to B4, in the experiment with human IL-2R alpha (CD25) [7], the binding result is listed as “no binding (tested: 2000 nM)”.

B5: Mouse AntiCD3-MDNA132 (other)
heavy 1: EVQLVESGGGLVQPGKSLKLSCEASGFTFSGYGMHWVRQAPGRGLESVAYITSSSINIKYADAVKGRFTVSRDNAKNLLFLQMNILKSEDTAMYYCARFDWDKNYWGQGTMVTVSSASTKGPSVFPLAPSSKSTSGGTAALGCLVKDYFPEPVTVSWNSGALTSGVHTFPAVLQSSGLYSLSSVVTVPSSSLGTQTYICNVNHKPSNTKVDKKVEPKSCDKTHTCPPCPAPELLGGPSVFLFPPKPKDTLMISRTPEVTCVVVDVSHEDPEVKFNWYVDGVEVHNAKTKPREEQYASTYRVVSVLTVLHQDWLNGKEYKCKVSNKALPAPIEKTISKAKGQPREPQVYTLPPCRDELTKNQVSLWCLVKGFYPSDIAVEWESNGQPENNYKTTPPVLDSDGSFFLYSKLTVDKSRWQQGNVFSCSVMHEALHNHYTQKSLSLSPGGGGGSGGGGSGGGGSPGPVPPSTAHRELIEELVNITQNQKAPLCNGSMVWSINLTAGMYCAALESLINVSGCSAIEKTQRMLSGFCPHKVSAGQFSSLHVTGRKIEVAQFVKDLLLHLKKLFKEGQFN
heavy 2: EVQLVESGGGLVQPGKSLKLSCEASGFTFSGYGMHWVRQAPGRGLESVAYITSSSINIKYADAVKGRFTVSRDNAKNLLFLQMNILKSEDTAMYYCARFDWDKNYWGQGTMVTVSSASTKGPSVFPLAPSSKSTSGGTAALGCLVKDYFPEPVTVSWNSGALTSGVHTFPAVLQSSGLYSLSSVVTVPSSSLGTQTYICNVNHKPSNTKVDKKV[sequence of human IgG1 Fc with changes not given]
light: DIQMTQSPSSLPASLGDRVTINCQASQDISNYLNWYQQKPGKAPKLLIYYTNKLADGVPSRFSGSGSGRDSSFTISSLESEDIGSYYCQQYYNYPWTFGPGTKLEIKRTVAAPSVFIFPPSDEQLKSGTASVVCLLNNFYPREAKVQWKVDNALQSGNSQESVTEQDSKDSTYSLSSTLTLSKADYEKHKVYACEVTHQGLSSPVTKSFNRGEC
notes: also called mouse anti-CD3-MDNA132^L39/Q111 (1:1 KIH); mCD3-MDNA132 (KiH, 1:1)
For B5, the Kd with human IL-13Rα2 [9] worked out at 4.5 nM; in experiment [10], 97.6 nM; in [11], 50.9 nM; with human IL-13Rα2 [12] it was 3.71 nM. For the same molecule, the binding result with human IL-13Rα1 [13] is listed as “no binding (tested: 2000 nM)”; in experiment [14], “no binding”.
